# According to a collection of fitness landscapes (doi:10.1126/science.1257360):
# This is one part of the list.
# B1: PhoQ; a variant is named by its letters at X, in order, P23837 (parent)
# chain: MKKLLRLFFPLSLRVRFLLATAAVVLVLSLAYGMVALIGYSVSFDKTTFRLLRGESNLFYTLAKWENNKLHVELPENIDKQSPTMTLIYDENGQLLWAQRDVPWLMKMIQPDWLKSNGFHEIEADVNDTSLLLSGDHSIQQQLQEVREDDDDAEMTHSVAVNVYPATSRMPKLTIVVVDTIPVELKSSYMVWSWFIYVLSANLLLVIPLLWVAAWWSLRPIEALAKEVRELEEHNRELLNPATTRELTSLVRNLNRLLKSERERYDKYRTTLTDLTHSLKTPLXXLQXXLRSLRSEKMSVSDAEPVMLEQISRISQQIGYYLHRASMRGGTLLSRELHPVAPLLDNLTSALNKVYQRKGVNISLDISPEISFVGEQNDFVEVMGNVLDNACKYCLEFVEISARQTDEHLYIVVEDDGPGIPLSKREVIFDRGQRVDTLRPGQGVGLAVAREITEQYEGKIVAGESMLGGARMEVIFGRQHSAPKDE
# Variants of: B1
# Test: enrichment ratio after two sorts for PhoP signalling (ratio (wild type AVST 3.29)); higher = more functional
# Settings: with PhoP (E. coli)
row,Variant,enrichment ratio
1,THAH,4.2
2,QPFV,≤ 0.25
3,NYHR,≤ 0.25
4,TYRN,≤ 0.25
5,SLSF,11.7
6,EDRG,≤ 0.25
7,TIEC,2.84
8,QCDH,18.8
9,EACF,≤ 0.25
10,FEML,1.01
11,MFWD,≤ 0.25
12,NYVF,≤ 0.25
13,GRHW,≤ 0.25
14,SKHR,≤ 0.25
15,YYYP,≤ 0.25
16,KHHT,≤ 0.25
17,DDWQ,≤ 0.25
18,MMNL,≤ 0.25
19,YKSW,≤ 0.25
20,MLWP,≤ 0.25
21,AWVH,≤ 0.25
22,YVSC,1.68
23,GVYF,≤ 0.25
24,GSFC,≤ 0.25

row,Variant,enrichment ratio
1,QMRT,≤ 0.25
2,HSDE,≤ 0.25
3,DNHD,≤ 0.25
4,IHST,≤ 0.25
5,TSDI,7.13
6,TMPY,≤ 0.25
7,TVPV,0.328
8,QCLQ,4.49
9,MMQH,≤ 0.25
10,YDMA,≤ 0.25
11,WGYP,≤ 0.25
12,FLAT,≤ 0.25
13,KCFM,≤ 0.25
14,AYTC,0.272
15,QFID,≤ 0.25
16,TWCI,≤ 0.25
17,PHPL,≤ 0.25
18,VFII,≤ 0.25
19,KLMK,≤ 0.25
20,NCLA,0.896
21,YWID,≤ 0.25
22,SDYE,≤ 0.25
23,LCCI,≤ 0.25
24,WLVS,≤ 0.25

row,Variant,enrichment ratio
1,YPCL,≤ 0.25
2,KCHF,≤ 0.25
3,AKEL,≤ 0.25
4,WNLI,≤ 0.25
5,VDQR,≤ 0.25
6,VPVK,≤ 0.25
7,HSSP,≤ 0.25
8,EIAR,≤ 0.25
9,NNGC,≤ 0.25
10,TYLI,1.56
11,FRKP,≤ 0.25
12,RIEG,≤ 0.25
13,AYMI,0.272
14,IEWH,≤ 0.25
15,QHPH,≤ 0.25
16,IFGV,≤ 0.25
17,LYFI,≤ 0.25
18,YERA,≤ 0.25
19,LIRS,≤ 0.25
20,RVVF,≤ 0.25
21,WDQA,≤ 0.25
22,VPIM,≤ 0.25
23,EHHS,≤ 0.25
24,IFNM,≤ 0.25

row,Variant,enrichment ratio
1,IDVY,≤ 0.25
2,VSGC,≤ 0.25
3,RPED,≤ 0.25
4,KDQP,≤ 0.25
5,YSYF,≤ 0.25
6,SRWQ,≤ 0.25
7,MTMH,≤ 0.25
8,DDNV,≤ 0.25
9,REPI,≤ 0.25
10,HEHH,≤ 0.25
11,DSGE,≤ 0.25
12,GLDR,≤ 0.25
13,DCLY,≤ 0.25
14,TTVH,0.84
15,MWYH,≤ 0.25
16,NEQP,≤ 0.25
17,IKFQ,≤ 0.25
18,HKFW,≤ 0.25
19,TGIV,≤ 0.25
20,KVPI,≤ 0.25
21,HNMR,≤ 0.25
22,QITA,≤ 0.25
23,RTMW,≤ 0.25
24,SVTL,12.2

row,Variant,enrichment ratio
1,NSQG,≤ 0.25
2,VMQH,≤ 0.25
3,RFYS,≤ 0.25
4,VCCI,≤ 0.25
5,ADQA,≤ 0.25
6,LDWA,≤ 0.25
7,PSGL,≤ 0.25
8,RPKW,≤ 0.25
9,VKVE,≤ 0.25
10,FFEP,≤ 0.25
11,ALHV,≤ 0.25
12,YDLL,≤ 0.25
13,CRFF,≤ 0.25
14,QEEY,≤ 0.25
15,QWLD,≤ 0.25
16,LMEQ,≤ 0.25
17,TNAR,≤ 0.25
18,DYPP,≤ 0.25
19,RHPM,≤ 0.25
20,QNNP,≤ 0.25
21,TIVH,≤ 0.25
22,FNMD,≤ 0.25
23,AYEP,≤ 0.25
24,RGPA,≤ 0.25

row,Variant,enrichment ratio
1,QICW,≤ 0.25
2,FLQH,≤ 0.25
3,PNTM,≤ 0.25
4,LFKP,≤ 0.25
5,ALDR,≤ 0.25
6,LMHY,≤ 0.25
7,WDID,≤ 0.25
8,HHVR,≤ 0.25
9,NCTN,≤ 0.25
10,GTCT,≤ 0.25
11,WPHY,≤ 0.25
12,DLCF,≤ 0.25
13,AQAH,0.951
14,LVHV,≤ 0.25
15,IFPC,≤ 0.25
16,IAEG,≤ 0.25
17,LERL,≤ 0.25
18,MRAE,≤ 0.25
19,HHTI,≤ 0.25
20,EKSY,≤ 0.25
21,AYGN,≤ 0.25
22,MKGL,≤ 0.25
23,MCRT,≤ 0.25
24,WRDW,≤ 0.25

row,Variant,enrichment ratio
1,HVVR,≤ 0.25
2,HSTM,13.1
3,SVFQ,≤ 0.25
4,NENT,≤ 0.25
5,NQRM,≤ 0.25
6,FIKD,≤ 0.25
7,TGTE,4.09
8,PRPF,≤ 0.25
9,SSPT,≤ 0.25
10,WECA,≤ 0.25
11,RGML,≤ 0.25
12,TVHE,≤ 0.25
13,FGID,≤ 0.25
14,YWIL,≤ 0.25
15,LPPF,≤ 0.25
16,PHPF,≤ 0.25
17,WEVY,≤ 0.25
18,WKLG,≤ 0.25
19,RMGS,≤ 0.25
20,ATMQ,3.23
21,LHYI,≤ 0.25
22,EFSD,≤ 0.25
23,NSME,≤ 0.25
24,PWAA,≤ 0.25

row,Variant,enrichment ratio
1,MRWS,≤ 0.25
2,QQRI,≤ 0.25
3,YLAC,≤ 0.25
4,FYQE,≤ 0.25
5,REQF,≤ 0.25
6,NRDR,≤ 0.25
7,WQSW,≤ 0.25
8,RAKC,≤ 0.25
9,ASHV,≤ 0.25
10,REIQ,≤ 0.25
11,NSLS,≤ 0.25
12,TSIP,≤ 0.25
13,TDGL,≤ 0.25
14,FPFP,≤ 0.25
15,YRLR,≤ 0.25
16,PLCG,≤ 0.25
17,VHAE,≤ 0.25
18,MTFC,≤ 0.25
19,LFNL,≤ 0.25
20,FNGW,≤ 0.25
21,SSAE,10.5
22,PINY,≤ 0.25
23,RNLD,≤ 0.25
24,TICS,13

row,Variant,enrichment ratio
1,CFIA,≤ 0.25
2,LKRW,≤ 0.25
3,VAQP,≤ 0.25
4,VQHV,≤ 0.25
5,VMTW,≤ 0.25
6,YVWI,≤ 0.25
7,KVNA,≤ 0.25
8,NDAW,≤ 0.25
9,VRLH,≤ 0.25
10,FTEV,≤ 0.25
11,FPSG,≤ 0.25
12,YWLL,≤ 0.25
13,KHYY,≤ 0.25
14,MADV,≤ 0.25
15,QRWL,≤ 0.25
16,ARWH,≤ 0.25
17,VEMA,≤ 0.25
18,RVCR,≤ 0.25
19,YLDK,≤ 0.25
20,IYIF,≤ 0.25
21,GCPV,≤ 0.25
22,IAHR,≤ 0.25
23,TETL,9.9
24,ERLH,≤ 0.25

row,Variant,enrichment ratio
1,NKIH,≤ 0.25
2,ELEF,≤ 0.25
3,LDEF,≤ 0.25
4,SVDW,≤ 0.25
5,GYID,≤ 0.25
6,WKRV,≤ 0.25
7,AIGA,≤ 0.25
8,ECNY,≤ 0.25
9,QKNI,≤ 0.25
10,WFTE,≤ 0.25
11,HCQF,≤ 0.25
12,DLRS,≤ 0.25
13,ANPC,≤ 0.25
14,GFNR,≤ 0.25
15,GWIM,≤ 0.25
16,KRQE,≤ 0.25
17,TITT,6.6
18,LVTV,≤ 0.25
19,PYKD,≤ 0.25
20,YAKT,≤ 0.25
21,DTNM,≤ 0.25
22,DYTQ,≤ 0.25
23,PADC,≤ 0.25
24,AMWF,≤ 0.25

row,Variant,enrichment ratio
1,PYDG,≤ 0.25
2,NDGI,≤ 0.25
3,PCGG,≤ 0.25
4,IKVN,≤ 0.25
5,YRRY,≤ 0.25
6,FDGV,≤ 0.25
7,MCFE,≤ 0.25
8,YECH,6.45
9,RPMH,≤ 0.25
10,VVLF,≤ 0.25
11,WWHA,≤ 0.25
12,IWCD,≤ 0.25
13,WNDR,≤ 0.25
14,IWLL,≤ 0.25
15,GMDL,≤ 0.25
16,WGIH,≤ 0.25
17,SMLC,3.5
18,MDFC,≤ 0.25
19,LAGL,≤ 0.25
20,LHEW,≤ 0.25
21,FCHH,≤ 0.25
22,QRFV,≤ 0.25
23,GPHF,≤ 0.25
24,DRNV,≤ 0.25

row,Variant,enrichment ratio
1,DPPN,≤ 0.25
2,FVKQ,≤ 0.25
3,TWAK,≤ 0.25
4,DHSC,≤ 0.25
5,DFCM,≤ 0.25
6,QIMQ,≤ 0.25
7,VYLS,≤ 0.25
8,VNEE,≤ 0.25
9,YHFA,≤ 0.25
10,LFLS,≤ 0.25
11,GLMF,1.04
12,YQFI,≤ 0.25
13,NTPL,≤ 0.25
14,TFWL,≤ 0.25
15,FLCG,≤ 0.25
16,WTGL,≤ 0.25
17,YCYM,≤ 0.25
18,WTSM,≤ 0.25
19,NKRA,≤ 0.25
20,VVPR,≤ 0.25
21,HDLM,≤ 0.25
22,DESV,≤ 0.25
23,MIWA,≤ 0.25
24,RPIS,≤ 0.25

row,Variant,enrichment ratio
1,GYLH,≤ 0.25
2,YEPL,≤ 0.25
3,TDSW,≤ 0.25
4,FHTH,≤ 0.25
5,MHPT,≤ 0.25
6,NRHT,≤ 0.25
7,LLVD,≤ 0.25
8,CLCM,≤ 0.25
9,VMPD,≤ 0.25
10,TYTA,5.82
11,TWLN,≤ 0.25
12,WQYQ,≤ 0.25
13,RLAF,≤ 0.25
14,MLIH,≤ 0.25
15,GPYV,≤ 0.25
16,RQPV,≤ 0.25
17,EIHS,≤ 0.25
18,MDTH,≤ 0.25
